Assay results: PubChem BioAssay AID588453 (National Center for Advancing Translational Sciences (NCATS), 2011)
In all, about 390,000 compounds went through this assay and about 4,000 (1%) were called active. Inconclusive results, whose numbers are uncertain, are shown with a selection of clear calls. Calls come from the whole dose curve; as a rule, active = well fitted inhibition curve with a large enough effect; inconclusive = small, poorly fitted or top-dose-only effect; inactive = no such curve, though single readings can be large or run the other way. Potencies beside an inconclusive call are fits to weak or partial responses and may not hold up.

Target: Thioredoxin reductase 1, cytoplasmic (Rattus norvegicus) (UniProt O89049)
Assay: qHTS Assay for Inhibitors of Mammalian Selenoprotein Thioredoxin Reductase 1 (TrxR1): qHTS; note: nearly all actives have a fitted effect of over 65% in size
Conditions: recombinant rTrxR1, NADPH fluorescence consumption, selenite substrate; series mostly up to 114 µM
How it was run: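 Rat TrxR1 (90 nM in the dispensed reagent) was pre-reduced with 400 uM NADPH for 5 min at room temperature, then incubated with compound for 15 min. After 400 uM selenite was added, NADPH fluorescence (Ex 340/Em 450 nm) was followed for 8 min.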
Potency is the fitted concentration of half-maximal effect; tags give direction and shape of the fitted curve.

Sequence of UniProt O89049 (O89049 whole entry, looked up): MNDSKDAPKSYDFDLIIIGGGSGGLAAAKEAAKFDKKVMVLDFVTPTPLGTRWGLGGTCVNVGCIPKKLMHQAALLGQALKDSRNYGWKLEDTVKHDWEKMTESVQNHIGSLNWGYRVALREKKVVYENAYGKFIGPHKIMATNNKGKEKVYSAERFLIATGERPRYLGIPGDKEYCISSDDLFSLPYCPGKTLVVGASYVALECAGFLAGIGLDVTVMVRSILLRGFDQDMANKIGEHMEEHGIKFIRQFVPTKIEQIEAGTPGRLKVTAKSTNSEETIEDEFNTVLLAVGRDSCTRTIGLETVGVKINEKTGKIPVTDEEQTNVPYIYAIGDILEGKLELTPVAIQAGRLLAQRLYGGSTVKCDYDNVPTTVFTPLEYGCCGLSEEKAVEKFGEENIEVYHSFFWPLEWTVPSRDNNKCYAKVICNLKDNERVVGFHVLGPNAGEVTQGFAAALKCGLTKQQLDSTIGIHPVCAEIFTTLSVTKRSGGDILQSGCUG

Compound	Potency
CCOC(=O)C1=C(COC(=O)CCOc2ccc(C)cc2)NC(=O)NC1C (centres undefined)	inconclusive: 44.7 µM [inhibitor, single point]
CN1CCN(c2oc(/C=C/c3ccc(F)cc3)nc2C#N)CC1	inconclusive: 89.1 µM [inhibitor, single point]
CC(C)S(=O)(=O)c1oc(-c2ccc(F)cc2)nc1S(=O)(=O)c1ccccc1	active: 0.316 µM
Cc1ccc(C(=O)CC(C(=O)O)c2cn(CCC#N)c3ccccc23)cc1 (centres undefined)	inconclusive: 79.4 µM [inhibitor, single point]
O=C(COC(=O)/C=C/c1ccco1)NCCN1C(=O)CSC1=O	inconclusive: 79.4 µM [inhibitor, single point]
CC(=O)c1ccc(NC(=O)C(C)OC(=O)/C=C/c2ccco2)cc1 (centres undefined)	inconclusive: 79.4 µM [inhibitor, partial curve]
Cc1ccc(NC(=O)CC2SC3=NCCN3C2=O)cc1 (centres undefined)	inconclusive: 44.7 µM [inhibitor, partial curve, poor fit]
NS(=O)(=O)c1ccc(CNC(=S)NCc2ccc(F)cc2)cc1	inconclusive: 89.1 µM [inhibitor, single point]
CN(C(=O)CC1C(=O)NCCN1Cc1ccc(F)cc1Cl)C1CCCCC1 (centres undefined)	inconclusive: 28.2 µM [inhibitor, full curve]
Cc1ccc(Nc2ccc([N+](=O)[O-])nc2[N+](=O)[O-])cc1	inconclusive: 12.6 µM [inhibitor, partial curve, poor fit]
O=C(CC1Sc2ncnn2C1=O)Nc1ccc(Cl)cc1 (centres undefined)	inconclusive: 4.47 µM [inhibitor, partial curve, poor fit]
CC(C)(C)c1cc(C(=O)N/N=C/c2ccc(-c3ccccc3[N+](=O)[O-])o2)n[nH]1	inconclusive: 70.8 µM [inhibitor, partial curve]
O=C1CS(=O)(=O)N(Cc2ccccc2F)c2ccc(Br)cc21	inconclusive: 44.7 µM [inhibitor, full curve]
Cc1cccc(Nc2nnc(SC/C(O)=C(\C#N)c3nc4ccccc4[nH]3)s2)c1	inconclusive: 79.4 µM [inhibitor, partial curve, poor fit]
O=C(NC1CCCCC1)N1CCSC1=Nc1ccccc1	inactive
CN1CCN(CC(=O)c2ccccc2F)CC1	inconclusive: 20 µM [inhibitor, single point]
O=C(COc1ccccc1)NCc1ccc2c(c1)CCN2C(=O)c1ccccc1	inactive
Cn1ccnc1Sc1cc(NCCCO)c([N+](=O)[O-])c2nonc12	inconclusive: 1.58 µM [inhibitor, full curve, poor fit]
CC(=O)Oc1cc(OC(C)=O)c2c(C)cc(=O)oc2c1	inconclusive: 31.6 µM [inhibitor, single point]
CCn1c(C)cc(=S)c2ccccc21	inconclusive: 8.91 µM [inhibitor, partial curve]
COc1ccc(-c2cc3c(=O)n(CC(=O)Nc4ccc(Br)c(C)c4)ccn3n2)cc1OC	inactive
NC(=O)[C@@H]1CCCN1Cc1c(C(=O)N2CCc3ccccc3C2)nc2ccc(Cl)cn12	inconclusive: 56.2 µM [inhibitor, partial curve, poor fit]
COc1ccc(S(=O)(=O)CC(=O)c2cc3cccc(C)c3oc2=O)cc1	inconclusive: 70.8 µM [inhibitor, partial curve]

Compound	Potency
Oc1cccc(NC(=S)Nc2ccc(SC(F)F)cc2)c1	inconclusive: 28.2 µM [inhibitor, single point]
COc1ccc(C(=O)O)cc1S(=O)(=O)NC(C)(C)C	inactive
CC12CCC=CC1C(c1ccc3ccccc3c1)N(Cc1ccccc1)C2=O (centres undefined)	inconclusive: 70.8 µM [inhibitor, partial curve, poor fit]
O=C(/C=C/c1ccco1)OCC(=O)c1ccc(OC(F)F)cc1	inconclusive: 50.1 µM [inhibitor, partial curve, poor fit]
COc1cccc2nc3cc(C)c(C)cc3nc12	inconclusive: 17.8 µM [inhibitor, full curve, poor fit]
C=CCn1c(CCNC(=O)c2cccs2)nnc1SCC(=O)c1ccc(Br)cc1	inconclusive: 22.4 µM [inhibitor, partial curve, poor fit]
CN(c1ccccc1)S(=O)(=O)c1ccc(Cl)c(C(=O)OCC(=O)NCc2ccco2)c1	inconclusive: 79.4 µM [inhibitor, single point]
O=C(CSc1nc2c(c(=O)n1-c1ccc(Cl)cc1)SCC2)NCc1ccco1	inconclusive: 12.6 µM [inhibitor, partial curve]
Nc1ccc(-c2nc3ccc(C(=O)O)cc3s2)cc1	inconclusive: 70.8 µM [inhibitor, single point]
O=c1cc(N2CCC3(CC2)OCCO3)[nH]c(=O)n1-c1ccc(Cl)cc1	inconclusive: 3.55 µM [inhibitor, partial curve, poor fit]
O=C1CN(CC(=O)N2CCCCC2)c2ccccc2O1	active: 25.1 µM
CC(C)(C)C(=O)/C=c1\[nH]c(=O)/c(=C\c2ccccc2F)s1	inactive
O=C(CNC(=O)C1CCCCC1)OCn1nnc2ccccc2c1=O	inactive
CCOc1ccc2c(c1)-c1c(ssc1=S)C(C)(C)N2C	inconclusive: 35.5 µM [inhibitor, partial curve, poor fit]
Oc1cc2c(cc1O)[C@H]1c3ccc(O)c(O)c3OC[C@@]1(O)C2	active: 10 µM
COC(=O)c1[nH]c2ccc(C)cc2c1NC(=O)CN1CCN(c2ccccc2)CC1	inactive
CC1(C)CN(O)CCN1O	inconclusive: 56.2 µM [inhibitor, partial curve, poor fit]
CCc1cc(C(=O)NNC(=O)CCl)sc1C	inconclusive: 35.5 µM [inhibitor, partial curve, poor fit]
Cc1cc(C)c2[nH]c(=O)c(CN(Cc3ccco3)C(=O)C3CCCO3)cc2c1 (centres undefined)	inconclusive: 70.8 µM [inhibitor, single point]
O=C(NC(=S)Nc1ccc2c(c1)OCCO2)c1ccccc1F	inconclusive: 35.5 µM [inhibitor, single point]
CCOc1ccc(NC(=S)Nc2ccc3nsnc3c2)cc1	inconclusive: 2 µM [inhibitor, full curve, poor fit]
CCCCCC(=O)Nc1c(-c2cccs2)c(=O)c2ccccc2n1C	inactive
Cc1cc(-c2ccc(C)c(S(=O)(=O)NC(C)Cc3ccco3)c2)on1 (centres undefined)	inconclusive: 89.1 µM [inhibitor, partial curve, poor fit]

Compound	Potency
CCOC(=O)CC(=O)CSc1nc2c(cc1C#N)CCCCC2	inconclusive: 28.2 µM [inhibitor, partial curve, poor fit]
O=C(C1COc2ccccc2O1)N1CCN(c2nc3c(F)cccc3s2)CC1 (centres undefined)	inactive
COc1ccc(N/C=C2/CCCCC2=O)cc1	inconclusive: 56.2 µM [inhibitor, partial curve, poor fit]
Cc1cc(C)cc(-n2c3nc4ccccc4nc3c3c(=O)n(Cc4ccco4)cnc32)c1	inactive
CCOC(=O)c1ccccc1NC(=O)CN1C(=O)CCS(=O)(=O)c2ccccc21	inconclusive: 50.1 µM [inhibitor, partial curve, poor fit]
Cc1c(NS(=O)(=O)c2ccccc2)cc(Cl)c(O)c1C	active: 25.1 µM
CCC1(C)Cc2c(sc3[nH]c(=S)n(Cc4ccccc4)c(=O)c23)CO1 (centres undefined)	inconclusive: 63.1 µM [inhibitor, partial curve, poor fit]
CC1SC(c2ccc(F)cc2)N(CCc2ccccc2)C1=O (centres undefined)	inconclusive: 89.1 µM [inhibitor, single point]
CCc1ccc(NCc2cc3cc4c(cc3n(CC(=O)Nc3cccc(OC)c3)c2=O)OCO4)cc1	inactive
Nc1cc2nc3ccccc3oc-2cc1=O	inconclusive: 56.2 µM [inhibitor, partial curve]
C1=C(c2ccc(-c3ccccc3)cc2)Nc2ncnn2C1c1ccco1 (centres undefined)	inconclusive: 22.4 µM [inhibitor, single point]
Cc1ccc(C2CCN(C(=O)Nc3ccccc3)C2)cc1 (centres undefined)	inactive
CCCN(CCC)C(=O)Cn1c(=O)n(-c2cccc(OC)c2)c(=O)c2c3c(sc21)CCCC3	inactive
O=C(NCc1cccnc1)c1ccc(COc2ccc(Cl)cc2)cc1	inactive
CCN1CCOC(=O)C1CC(=O)Nc1cc(C)ccc1OC (centres undefined)	active: 11.2 µM
COc1cccc2cc(C(=O)N3CCN(C45CC6CC(CC(C6)C4)C5)CC3)c(=O)oc12	inconclusive: 25.1 µM [inhibitor, partial curve, poor fit]
Cc1cccc(-c2nc(NCCCN3CCOCC3)c3ccccc3n2)c1	inactive
COc1ccc(OC)c(S(=O)(=O)N2CCCC(C(=O)N3CCOCC3)C2)c1 (centres undefined)	inactive
CCN(CC)c1ccc(NC(=O)CCS(=O)(=O)c2cc3c(cc2Cl)NC(=O)CO3)c(C)c1	inactive
O=C(Cn1cc(COc2ccccc2[N+](=O)[O-])nn1)c1ccc(O)cc1	inconclusive: 56.2 µM [inhibitor, single point]
CCc1cccc(C)c1NS(=O)(=O)c1cc2[nH]c(=O)c(=O)[nH]c2cc1C	inactive
CCOC(=O)c1c(NC(=S)Nc2ccc(OCC)cc2)sc2c1CCN(C)C2	inconclusive: 25.1 µM [inhibitor, single point]
COC(=O)c1c(NC(=O)CN2CCN(c3ccccc3Cl)CC2)sc(C)c1C	inconclusive: 89.1 µM [inhibitor, single point]
